# Reference: PubChem BioAssay AID504332 (National Center for Advancing Translational Sciences (NCATS), 2011)
# Out of some 350,000 compounds screened, about 31,000 (8.9%) were called active. Inconclusive results, whose numbers are uncertain, are shown with a selection of clear calls. Calls follow the shape of the dose curve; as a rule, active = well fitted inhibition curve with a large enough effect; inconclusive = small, poorly fitted or top-dose-only effect; inactive = no such curve, though single readings can be large or run the other way. Potencies of inconclusive entries are doubtful fits and often do not repeat.
# Target: Histone-lysine N-methyltransferase EHMT2 (Homo sapiens) (UniProt Q96KQ7)
# Chain of UniProt Q96KQ7 (Q96KQ7 whole entry, looked up): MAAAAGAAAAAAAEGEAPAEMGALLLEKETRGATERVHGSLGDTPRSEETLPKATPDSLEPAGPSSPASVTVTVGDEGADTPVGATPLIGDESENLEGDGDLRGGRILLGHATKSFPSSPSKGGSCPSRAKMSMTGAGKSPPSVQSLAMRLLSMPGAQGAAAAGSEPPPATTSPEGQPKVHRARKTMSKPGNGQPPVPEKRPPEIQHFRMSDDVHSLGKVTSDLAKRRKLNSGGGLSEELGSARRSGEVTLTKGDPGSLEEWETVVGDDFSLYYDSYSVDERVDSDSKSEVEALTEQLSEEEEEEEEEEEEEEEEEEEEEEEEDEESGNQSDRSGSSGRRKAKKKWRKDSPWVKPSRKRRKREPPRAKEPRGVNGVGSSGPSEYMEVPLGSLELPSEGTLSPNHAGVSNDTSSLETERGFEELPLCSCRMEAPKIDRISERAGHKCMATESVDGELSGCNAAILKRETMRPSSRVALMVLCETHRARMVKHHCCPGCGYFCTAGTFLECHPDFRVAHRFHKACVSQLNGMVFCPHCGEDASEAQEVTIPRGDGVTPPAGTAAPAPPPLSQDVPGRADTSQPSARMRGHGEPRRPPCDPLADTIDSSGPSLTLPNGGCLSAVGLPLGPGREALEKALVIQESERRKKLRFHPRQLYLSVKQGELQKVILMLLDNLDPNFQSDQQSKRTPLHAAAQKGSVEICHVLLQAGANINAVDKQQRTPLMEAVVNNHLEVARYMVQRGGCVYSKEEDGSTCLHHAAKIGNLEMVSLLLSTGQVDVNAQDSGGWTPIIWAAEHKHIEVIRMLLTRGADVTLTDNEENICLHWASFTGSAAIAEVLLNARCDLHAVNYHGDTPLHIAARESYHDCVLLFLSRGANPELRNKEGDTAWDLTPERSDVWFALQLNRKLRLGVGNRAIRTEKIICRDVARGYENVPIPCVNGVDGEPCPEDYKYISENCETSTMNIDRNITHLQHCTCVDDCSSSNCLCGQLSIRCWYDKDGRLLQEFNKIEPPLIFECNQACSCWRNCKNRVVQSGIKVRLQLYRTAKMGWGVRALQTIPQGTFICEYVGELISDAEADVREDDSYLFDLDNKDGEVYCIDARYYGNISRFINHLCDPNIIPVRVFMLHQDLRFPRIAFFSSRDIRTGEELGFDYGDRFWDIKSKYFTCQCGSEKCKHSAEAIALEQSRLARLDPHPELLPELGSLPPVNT
# Experiment: qHTS Assay for Inhibitors of Histone Lysine Methyltransferase G9a; also: nearly all actives have a fitted effect of over 75% in size
# Details: G9a H3K9 monomethylation, AlphaScreen, 2 h; activity, negative = inhibition: at 59 µM (top of the series) unless noted
# Method in brief: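 AlphaScreen detection with an anti-monomethyl H3K9 antibody quantified product after a 2 h room-temperature reaction containing 500 nM biotinylated H3K9 peptide, 20 µM SAM and 20 nM enzyme, which had been preincubated 15 min with compound.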
# % is scaled to controls: 0 for no effect and ±100 for the full control effect; potency is read from the fitted curve at half-maximal effect; tags tell the direction and shape of the fitted curve.
Compound,"activity, negative = inhibition",Potency
Cc1ccc(NC(=O)C(C)Sc2nc3nc(C)cc(C)n3n2)cc1 (stereo unspecified),inactive: 21.7% [at 12.7 µM],
CC(=O)c1sc(NC(=O)CCN2C(=O)c3ccccc3C2=O)nc1C,inactive: 20% [at 102 µM],
COc1ccc(C(=O)N2CCN(c3nnnn3-c3ccccc3)CC2)cc1OC,inactive: -2.48%,
COc1ccc(C2=NN(C(=O)CSc3nnc(C)c(=O)n3N)C(c3ccco3)C2)cc1 (stereo unspecified),,"inconclusive: 89.1 µM [inhibitor, partial curve, poor fit]"
CN(C(=O)c1ccc2c(=O)n3c(nc2c1)CCCCC3)c1cccc(Cl)c1,inactive: 17.7% [at 102 µM],
Cc1cc(C(=O)NP(=O)(N2CCOCC2)N2CCOCC2)c(C)n1-c1ccc(Br)cc1,,active: 50.1 µM
CCOc1c(O)ccc(C2NC(=O)N(C)C(C)=C2C(=O)OC)c1[N+](=O)[O-] (stereo unspecified),,"inconclusive: 56.2 µM [inhibitor, partial curve, poor fit]"
Cc1ccc(CNC(=O)c2cc3c(=O)n(C)c4ccccc4c3n2C)cc1,inactive: 5.96% [at 102 µM],
O=C(NCc1ccccc1Br)c1ccncc1,inactive: 4.99% [at 102 µM],
OCCN1CCN(C(=S)Nc2cccc(C(F)(F)F)c2)CC1,,"inconclusive: 3.55 µM [inhibitor, single point]"
Cc1cc(Sc2nc(N)ncc2[N+](=O)[O-])ncn1,,active: 31.6 µM
COc1ccc(S(=O)(=O)N2CCN(Cc3cc(OC)c(OC)cc3OC)CC2)cc1,,active: 50.1 µM
CCCOC1OC(=O)c2c1ccc(OC)c2OC (stereo unspecified),inactive: -2.58%,
CSc1ccccc1-c1nnc(-c2ccc(Cl)c(Cl)c2)o1,,"inconclusive: 44.7 µM [inhibitor, partial curve, poor fit]"
CCc1ccc(S(=O)(=O)c2nnn3c2nc(NCCNC(C)=O)c2ccccc23)cc1,,"inconclusive: 89.1 µM [inhibitor, partial curve, poor fit]"
CCN(CC)c1ccc(Nc2cc3n(c(=O)n2)CCc2cc(OC)c(OC)cc2-3)cc1,,active: 20 µM
COc1cc(OC)cc(C(=O)NCc2n[nH]c(=S)n2-c2ccccc2OC)c1,,active: 1 µM
Cc1ccc(-n2c(=O)c3cccnc3n2CC(=O)Nc2cccc(C)c2C)cc1,,"inconclusive: 3.55 µM [inhibitor, single point]"
COc1ccc2c(=O)c3c(=O)n(Cc4ccco4)c(-c4cc(OC)c(OC)c(OC)c4)nc3oc2c1,,"inconclusive: 39.8 µM [inhibitor, single point]"
COc1ccc(-n2c(SC(C)C(=O)Nc3ncc(Cl)cc3Cl)nc3ccccc32)cc1 (stereo unspecified),,"inconclusive: 28.2 µM [inhibitor, single point]"
O=C(O)c1cc2ccccc2n1-c1ccccc1,,"inconclusive: 89.1 µM [inhibitor, partial curve, poor fit]"
